Test results taken from PubChem BioAssay AID588453 (National Center for Advancing Translational Sciences (NCATS), 2011).
Values joined by “and” are separate entries in the source; they are usually repeats but may differ in a detail not shown here. Identical values can stand only once. The whole screen tested about 390,000 compounds, of which about 4,000 (1%) were called active. This list was built around the results that the source calls inconclusive (neither active nor inactive); the mix of calls is not that of the screen. Calls come from the whole dose curve; as a rule, active = well fitted inhibition curve with a large enough effect; inconclusive = small, poorly fitted or top-dose-only effect; inactive = no such curve, though single readings can be large or run the other way. A potency beside an inconclusive call is a rough fit, not a confirmed value.

molecular target: Thioredoxin reductase 1, cytoplasmic (Rattus norvegicus) (UniProt O89049); assay: qHTS Assay for Inhibitors of Mammalian Selenoprotein Thioredoxin Reductase 1 (TrxR1): qHTS; settings: recombinant rTrxR1, NADPH fluorescence consumption, selenite substrate; series mostly up to 114 µM; note: nearly all actives have a fitted effect of over 65% in size
Procedure, shortened: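 Rat TrxR1 (90 nM in the dispensed reagent) was pre-reduced with 400 uM NADPH for 5 min at room temperature, then incubated with compound for 15 min. After 400 uM selenite was added, NADPH fluorescence (Ex 340/Em 450 nm) was followed for 8 min.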
% is set by controls: 0 for no effect and ±100 for the full control effect; potency is the fitted concentration of half-maximal effect; tags give direction and shape of the fitted curve.

Sequence of UniProt O89049 (O89049 whole entry, looked up): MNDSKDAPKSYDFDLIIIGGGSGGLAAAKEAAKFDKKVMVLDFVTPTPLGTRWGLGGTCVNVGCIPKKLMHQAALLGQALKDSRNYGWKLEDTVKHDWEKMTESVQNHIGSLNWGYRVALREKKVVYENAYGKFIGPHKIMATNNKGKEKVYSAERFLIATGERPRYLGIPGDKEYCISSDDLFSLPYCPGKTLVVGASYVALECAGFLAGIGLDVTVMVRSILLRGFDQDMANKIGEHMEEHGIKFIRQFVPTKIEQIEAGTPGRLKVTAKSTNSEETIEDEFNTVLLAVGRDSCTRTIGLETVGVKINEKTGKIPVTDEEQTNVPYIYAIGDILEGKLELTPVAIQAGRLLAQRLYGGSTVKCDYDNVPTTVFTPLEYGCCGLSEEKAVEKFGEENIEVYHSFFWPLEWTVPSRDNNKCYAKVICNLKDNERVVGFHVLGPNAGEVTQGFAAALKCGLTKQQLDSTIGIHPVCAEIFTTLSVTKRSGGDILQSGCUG

Question: Which Potency does the source give for `O=C(N/N=C/c1ccccn1)c1cc(Br)ccc1O` here?
Answer: inactive

Question: `CCCN1CCC(=NNc2ccc(S(N)(=O)=O)cc2[N+](=O)[O-])CC1` was tested. Which Potency did it give?
Answer: inactive

Question: How did the Potency turn out when `COc1ccc(NS(=O)(=O)c2ccc(NC(=S)NC(=O)/C=C/c3ccccc3)cc2)nn1` was run?
Answer: inconclusive: 50.1 µM [inhibitor, partial curve]

Question: `Cc1cccc(-c2noc(-c3ccccc3NC(=O)C3CC(=O)N(c4ccccc4C)C3)n2)c1` (stereo not drawn) was tested. Which Potency did it give?
Answer: inactive

Question: `Cc1nonc1OCCNc1ccc([N+](=O)[O-])cc1[N+](=O)[O-]` was tested. Which Potency did it give?
Answer: inconclusive: 70.8 µM [inhibitor, partial curve, poor fit]

Question: How did the Potency turn out when `Nn1c(SC/C=C/c2ccccc2)nnc1-c1ccncc1` was run?
Answer: inconclusive: 70.8 µM [inhibitor, partial curve]

Question: `CCCCn1c(CCl)nc2cc(S(=O)(=O)N3CCOCC3)ccc21` was tested. Which Potency did it give?
Answer: inconclusive: 25.1 µM [inhibitor, full curve]

Question: `O=C(c1ccccc1)C(CCC(CN1CCOCC1)C(=O)c1ccccc1)CN1CCOCC1` (stereo not drawn) was tested. Which Potency did it give?
Answer: inconclusive: 5.62 µM [inhibitor, partial curve, poor fit]

Question: For `N#C/C(=C(/O)C(Cl)(Cl)Cl)c1nc2ccccc2[nH]1`, which Potency is on record?
Answer: inconclusive: 79.4 µM [inhibitor, partial curve, poor fit]

Question: How did the Potency turn out when `O=C(CCCN1C(=O)CCC1=O)Nc1ccccc1F` was run?
Answer: inactive

Question: For `COC(=O)c1sc2nc(CN3CCOCC3)nc(N3CCOCC3)c2c1C`, which Potency is on record?
Answer: inconclusive: 50.1 µM [inhibitor, partial curve]

Question: Which Potency does the source give for `CC(=O)c1cccc(NC(=S)NC(=O)CC(C)(C)C)c1` here?
Answer: inconclusive: 14.1 µM [inhibitor, partial curve, poor fit]

Question: `CCOC(=O)c1ccc(N2C(=O)C=CC2=O)cc1` was tested. Which Potency did it give?
Answer: active: 8.91 µM

Question: With `N#C/C(=C\c1ccc(-c2ccc(C(=O)O)cc2)o1)C(=O)Nc1ccccc1C(=O)O` as the compound, how does the Potency read?
Answer: inconclusive: 50.1 µM [inhibitor, partial curve, poor fit]

Question: `Cc1oc2cc3oc(=O)c(CCC(=O)N4C[C@H]5C[C@@H](C4)c4cccc(=O)n4C5)c(C)c3cc2c1C` was tested. Which Potency did it give?
Answer: inconclusive: 10 µM [inhibitor, partial curve]

Question: For `Cc1ccc(C(=O)N2CCN(c3ccc(F)cc3)CC2)cc1S(=O)(=O)N1CCCCC1`, which Potency is on record?
Answer: inactive

Question: How did the Potency turn out when `Cc1ccc(C(=O)/C=C/c2ccccc2[N+](=O)[O-])cc1` was run?
Answer: inconclusive: 25.1 µM [inhibitor, single point]

Question: `O=C(CNC(=O)C(c1ccccc1)c1ccccc1)OCC(=O)c1ccc2ccccc2c1` was tested. Which activity change, negative = inhibition did it give?
Answer: inactive: 18% [at 0.0914 µM]

Question: For `COc1ccccc1CNC(=O)c1ccc(CS(=O)(=O)c2ccc(C)cc2)o1`, which Potency is on record?
Answer: inconclusive: 56.2 µM [inhibitor, partial curve]

Question: `CCn1c(SCC(=O)c2ccccc2)nnc1-c1ccoc1C` was tested. Which Potency did it give?
Answer: inconclusive: 28.2 µM [inhibitor, single point]

Question: How did the Potency turn out when `COc1ccc([N+](=O)[O-])cc1N(CC(=O)N1CCN(Cc2ccccc2)CC1)S(C)(=O)=O` was run?
Answer: inconclusive: 17.8 µM [inhibitor, partial curve]

Question: `COc1ccc(S(=O)(=O)N2CCCN(CC(=O)Nc3ccc(NC(C)=O)cc3)CC2)cc1` was tested. Which Potency did it give?
Answer: inconclusive: 44.7 µM [inhibitor, partial curve]

Question: `COc1c(/C=N/NC(=O)c2ccncc2)c(CCN(C)C(C)=O)cc2c1OCO2` was tested. Which Potency did it give?
Answer: inconclusive: 89.1 µM [inhibitor, partial curve, poor fit]

Question: For `CCOC(=O)c1c(-c2ccccc2)oc2ccc(NS(=O)(=O)c3cc(C)c(C)cc3C)cc12`, which Potency is on record?
Answer: inactive

Question: For `COc1ccc(-c2ccccc2)c2oc(-c3ccco3)cc(=O)c12`, which Potency is on record?
Answer: active: 31.6 µM

Question: For `N#CC1=C(N)Oc2n[nH]c(-c3cccnc3)c2C1c1ccc([N+](=O)[O-])o1` (stereo not drawn), which Potency is on record?
Answer: inconclusive: 31.6 µM [inhibitor, single point]

Question: `CC(=C\C(=O)O)/C(=C/c1ccco1)C(=O)O` was tested. Which Potency did it give?
Answer: inconclusive: 44.7 µM [inhibitor, partial curve]

Question: `CC1CCCc2sc3nc(SCC(=O)c4ccc(Br)cc4)nc(N)c3c21` (stereo not drawn) was tested. Which Potency did it give?
Answer: inactive

Question: `COC(=O)CCCC1=CC2=CC(=O)C(C)(OC(=O)c3cccs3)C(=O)C2=CN1CC1CC1` (stereo not drawn) was tested. Which Potency did it give?
Answer: inconclusive: 79.4 µM [inhibitor, partial curve, poor fit]

Question: With `O=C(/C=C/c1ccccc1)NC(=S)NNC(=O)c1cccnc1` as the compound, how does the Potency read?
Answer: inconclusive: 39.8 µM [inhibitor, partial curve]

Question: `COc1ccc(C(=O)N(Cc2ccco2)Cc2cccs2)c(OC)c1` was tested. Which Potency did it give?
Answer: inconclusive: 89.1 µM [inhibitor, partial curve, poor fit]

Question: For `CCOC(=O)c1cc2c(nc1N)CC(C)(C)OC2`, which Potency is on record?
Answer: inconclusive: 89.1 µM [inhibitor, single point]

Question: With `CCc1ccc(CN2CCCC(C(=O)Nc3ccccc3-c3ccc(OC)cc3)C2)o1` (stereo not drawn) as the compound, how does the Potency read?
Answer: inconclusive: 50.1 µM [inhibitor, partial curve, poor fit]

Question: For `Cc1cc(C)cc(N2C(=O)CC(Sc3ncn[nH]3)C2=O)c1` (stereo not drawn), which Potency is on record?
Answer: inconclusive: 12.6 µM [inhibitor, partial curve, poor fit]

Question: Which Potency does the source give for `CCOc1ccc(NC(=O)CC2SC(=O)N(c3ccccc3)C2=O)cc1` (stereo not drawn) here?
Answer: inactive

Question: With `Nc1ccc2c3c(cccc13)C(=O)NC2=O` as the compound, how does the Potency read?
Answer: inconclusive: 37.7 µM [inhibitor, single point] and inconclusive: 33.6 µM [inhibitor, partial curve, poor fit]

Question: For `O=C(OCC(=O)N1CCN(c2ccccc2)CC1)C1=COCCO1`, which Potency is on record?
Answer: inconclusive: 39.8 µM [inhibitor, partial curve]

Question: With `NC(N)=NS(=O)(=O)c1ccc(NC(=S)NC(=O)c2ccncc2)cc1` as the compound, how does the Potency read?
Answer: inconclusive: 56.2 µM [inhibitor, partial curve, poor fit]

Question: For `O=S(=O)(NCCS(=O)(=O)N1CCN(c2ccccc2)CC1)c1ccc(Br)cc1`, which Potency is on record?
Answer: inactive

Question: Which Potency does the source give for `Cc1ccc2c(c1)C(N1CCN(C)CC1)=Nc1cccnc1N2` here?
Answer: inconclusive: 31.6 µM [inhibitor, partial curve] and inconclusive: 25.1 µM [inhibitor, single point]

Question: For `Fc1ccc2cc(-c3ccccc3)ncc2c1`, which Potency is on record?
Answer: inconclusive: 15.8 µM [inhibitor, full curve]

Question: `COc1cccc2cc(C(=O)C3=C(O)C(=O)N(CCN4CCOCC4)C3c3cccs3)oc12` (stereo not drawn) was tested. Which Potency did it give?
Answer: inconclusive: 14.1 µM [inhibitor, full curve]

Question: Which Potency does the source give for `Cc1cc(C)c2c(=O)n(CC(=O)NCCCN3CCN(c4ccccc4F)CC3)sc2n1` here?
Answer: inactive

Question: Which Potency does the source give for `CC(NC(=S)NC(=O)c1ccccc1)c1ccccc1` (stereo not drawn) here?
Answer: inconclusive: 50.1 µM [inhibitor, partial curve, poor fit]

Question: For `CCOc1ccc(NC(=O)CSc2ccc(-c3ccco3)nn2)cc1`, which Potency is on record?
Answer: inconclusive: 8.91 µM [inhibitor, full curve]

Question: Which Potency does the source give for `Cc1ccc(/C=C/C(=O)OCn2nnc3ccccc3c2=O)o1` here?
Answer: inconclusive: 50.1 µM [inhibitor, partial curve, poor fit]

Question: Which Potency does the source give for `Cc1ccc(C2=NOC(=O)/C2=C\c2ccccc2)cc1` here?
Answer: active: 3.98 µM

Question: With `CCOc1ccc(N(C)S(=O)(=O)c2ccc3c(c2)CCCN3C(C)=O)cc1` as the compound, how does the Potency read?
Answer: inactive

Question: With `CC(Sc1nnc(-c2ccco2)n1C)C(=O)N1C(C)CCCC1C` (stereo not drawn) as the compound, how does the Potency read?
Answer: inconclusive: 44.7 µM [inhibitor, partial curve]

Question: Which Potency does the source give for `Cc1ccc(NC(=S)c2ccncc2)c(C)c1` here?
Answer: active: 20 µM

Question: How did the Potency turn out when `CCCCN(Cc1cc2cc(C)ccc2[nH]c1=O)C(=O)c1ccccn1` was run?
Answer: inactive

Question: For `CCCN(C(=O)c1cc2c(=O)[nH]c3ccc(C)cc3c2s1)c1ccc(CC)cc1`, which Potency is on record?
Answer: inactive

Question: Which Potency does the source give for `O=C(CC1Sc2ccccc2NC1=O)NCc1ccccc1` (stereo not drawn) here?
Answer: inconclusive: 89.1 µM [inhibitor, single point]

Question: Which Potency does the source give for `Cc1ccc(/C=N/NC(=O)c2ccc(-c3ccccc3)cc2)o1` here?
Answer: inactive

Question: How did the Potency turn out when `CCCC(C)NC(=O)c1cccc(Oc2ccccc2)c1` (stereo not drawn) was run?
Answer: inactive

Question: With `COc1cccc(COCCN2CCN(S(=O)(=O)c3ccccc3)CCC2=O)c1` as the compound, how does the Potency read?
Answer: inactive

Question: Which Potency does the source give for `O=C(CC1SC(=Nc2ccc(OC(F)F)cc2)N(CCC2=CCCCC2)C1=O)Nc1ccccc1F` (stereo not drawn) here?
Answer: inactive

Question: Which Potency does the source give for `CCNC(=O)COC(=O)c1cc(-c2ccco2)nc2ccccc12` here?
Answer: active: 11.2 µM

Question: `Cc1cccc(NC(=S)Nc2ccccn2)c1` was tested. Which Potency did it give?
Answer: inconclusive: 39.8 µM [inhibitor, partial curve]

Question: With `Cc1sc2nc(CN3CCOCC3)nc(N3CCC(C(N)=O)CC3)c2c1C` as the compound, how does the Potency read?
Answer: inconclusive: 89.1 µM [inhibitor, single point]

Question: `O=C(O)C1CC=CCC1C(=O)N1CCN(c2nc(-c3ccccc3Cl)c3cc(Br)ccc3n2)CC1` (stereo not drawn) was tested. Which Potency did it give?
Answer: inconclusive: 56.2 µM [inhibitor, partial curve]

Question: With `CCOc1ccccc1NC(=S)NC(=O)C1CCCCC1` as the compound, how does the Potency read?
Answer: inconclusive: 56.2 µM [inhibitor, partial curve, poor fit]

Question: With `COc1ccc(NC(=S)NC(=O)Cc2ccccc2)c(OC)c1` as the compound, how does the Potency read?
Answer: inconclusive: 56.2 µM [inhibitor, single point]

Question: For `Nc1c(Br)cc(Br)c2cccnc12`, which Potency is on record?
Answer: inconclusive: 79.4 µM [inhibitor, partial curve]

Question: For `Oc1ccc(CNc2ccccc2F)c2cccnc12`, which Potency is on record?
Answer: inconclusive: 0.708 µM [inhibitor, full curve, poor fit]

Question: For `O=[N+]([O-])c1ccc(N2CCCCC2)s1`, which Potency is on record?
Answer: inconclusive: 56.2 µM [inhibitor, partial curve, poor fit]

Question: How did the Potency turn out when `COc1ccc(/C=C/C(=O)Nc2nc3n(n2)C(c2ccc(F)cc2)C=C(c2ccccc2)N3)cc1` (stereo not drawn) was run?
Answer: inactive

Question: How did the Potency turn out when `CC(=O)Oc1cc2cccc(OC(C)=O)c(=O)c2c(OC(C)=O)c1OC(C)=O` was run?
Answer: inconclusive: 79.4 µM [inhibitor, single point]
